Reference: the supplement of paper PMC10126150
Sequences with one replicate were seen in a single cluster, so their values are uncertain.

System: ATP
Experiment: switch fluorescence ratio, 500 uM ATP over buffer (Cy3 cluster intensity, sum of 5 cycles each) (fold (ratio)); higher = stronger signal-on switching upon ATP binding; sequences stand for … in TCGTCGGCAGCGTCAGATGTGTATAAGAGACAGTTTTTTTTTTTTTTTTTTTTTTTTT…TC
Conditions: aptamer strand: ATP DNA aptamer (quencher-CACCTGGGGGAGTATTGCGGAGGAAGG + anchor), 100 nM annealed; ATP concentration: 500 uM; one replicate
In short: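 Imaging in selection buffer was followed by imaging after 15 min with 500 uM ATP at 22 °C, for Cy3-labelled switching-strand clusters annealed to 100 nM quencher-labelled ATP aptamer on a modified Illumina MiSeq flow-cell. Five of these buffer/ATP cycles ran, separated by NaOH stripping and re-annealing. The fluorescence ratio per cluster is summed target-cycle over summed buffer-cycle Cy3 intensity, averaged per switch-domain sequence; clusters outside 100-1000 RFU were removed.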
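Note: ATP exposure 15 min at 22 °C before imaging.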

Sequence | switch fluorescence ratio
GTTGTTCTCG | 1.02
TAATAACCGT | 1.01
TTTCGAGTAA | 0.993
GAACAGGCTA | 1.04
GAAACTTGGG | 0.958
AAAATATAAG | 1
CCCTTTTATC | 1
TCACCTGCCA | 1.07
GGCTGAGCTA | 1.03
TGCAGAATCA | 0.963
GACTTACTTT | 1.14
GGGGAGGTCA | 0.981
GTAATGCTGG | 1.02
TGACTCAGGA | 1.05
GTGAAATGG | 0.999
CAATGGACG | 0.982
TTTTAATCCG | 1.08
ATCTTTTGTT | 1.02
TCGTTATTAG | 1.02
ATTAGTTTGC | 0.979
GAGTACCTAG | 1.03
ATAAATAATG | 0.982
GCGTAAAACA | 0.925

Sequence | switch fluorescence ratio
AATCCCTT | 1.05
ATGACTAACG | 1.18
GATTTAAGAC | 1
AAAGACCCAT | 1.01
AGTCTACCAC | 1
ACTGCTCATC | 1.04
TGCTCGCGTT | 0.994
GGATTTCATA | 0.994
TTTGCTTCAT | 0.997
GTTGCGCGGC | 1
CGTGGACCGT | 1
AGGTACCTGT | 0.978
ATGCCCTGTG | 1.07
GGGTCCCTCC | 0.991
CGGTGAATCC | 1.03
AAAGGCAGCG | 1.08
CCCCGACATC | 3.95
TGATTATCCA | 1.01
CGTCGGCAA | 2.38
CTGGATCGTT | 0.944
ATTTTGGATA | 0.971
TATAACTGCA | 1.02
AAGCGCAGAT | 0.988

Sequence | switch fluorescence ratio
GGGTCTGATT | 1.02
GAACGACGGA | 1.03
CCATGTTGTG | 1
TAGTCGGGGT | 0.939
TATCATGACG | 0.976
TTAGCAACCG | 1.33
GAGATATCCC | 1.03
ATTCTGATCC | 1
TTAGCTATAT | 4.36
TAGCGTC | 0.958
GAGTAAGATA | 0.932
TATGAAACAT | 1
CAGATTATTC | 1.01
ACTCCGGTG | 1.9
AGGTGTCTCA | 1
TGCTGGGTTC | 1.03
GGGCTTGCAT | 0.951
CGCGCTGGAG | 1
CTAGGCCCGC | 1.03
CCTGACGTG | 1.11
GCGATGCGTA | 1.06
ACATATTCGA | 1.02
GGTGATAATC | 1.05

Sequence | switch fluorescence ratio
AAATCCCGTT | 1.12
ATGCTGGG | 1.1
GGAAGTCAGT | 1.02
GGTAACGCAC | 1.77
ATTTAGGTTG | 0.962
CTCACTCCAG | 1.11
AGAGTAGCGT | 0.994
GTTACCTAAT | 1.01
TACGGTTTC | 1.03
AAGTCATCCA | 1.04
CTTGCGGGAT | 1.05
ACCAGAGGGG | 0.993
TTGTACACCA | 1.08
CAGCCTTCGC | 1.17
TTATTCAATG | 1
TGGAATCTGT | 0.962
ATAAGCACAG | 1.12
ATATATCATC | 0.973
TTCAGTGGAT | 1.03
CAATTCTTCA | 1.04
GGAGTTTGCA | 1.02
GAAGGGTTAG | 1.01
GGTATTCAGT | 0.997

Sequence | switch fluorescence ratio
GACAATTACA | 1.06
TCATTGCACC | 1.06
GCGGAAACAC | 1.09
ATGCGTATA | 1.03
GCTAATGAGT | 1
GCAGATCGCG | 1.01
ATGGCGTATA | 1.04
TGTCGCCGGT | 1
TGAGTCAGAT | 0.958
TATAAATCAG | 1.07
AGAAGAGCAT | 1
TATTAGGTAG | 1.01
ATAGGAAACG | 0.944
CGGACCGCTC | 1.39
CAAATTGACT | 1.04
GATACGTTCG | 0.993
GCACCGCAGG | 1.03
AGATGTTATG | 0.965
AAAGTGGGAA | 1.06
AAAGAGGTT | 1.03
GCTGAGGGAT | 1.01
CCGTTAGTTG | 1.06
GTTGGTCCGA | 1

Sequence | switch fluorescence ratio
GATTGAGATC | 1
CGCACGAGGA | 1.05
TACTAATAAG | 0.994
TTCTCTAGTT | 1
AATACGATTG | 0.998
AGTTGAGGTC | 0.965
CAGGAAACGT | 1.14
TATTGCCTAA | 0.961
AGGGGTTTAG | 0.974
TTCACCTGAG | 1.08
TAATGCTCTA | 0.983
ATTTCAGTGC | 0.985
TATAATGATG | 0.992
CGGTGGCGTG | 0.995
TCTGTCAGGC | 1.05
GGACCTCGCA | 1.44
TAGGGTCCTT | 1.02
GCGTACGAAA | 1.02
TGCCTTATGT | 0.996
TCCATCGGTG | 0.998
ATGAATTCGT | 0.999
TTAGTAGGGC | 0.911
AACAAATGTA | 1.02

Sequence | switch fluorescence ratio
GTCAGGAGCC | 1.02
AGTCGTCA | 1
CACCAGGC | 1.18
TAAAGGTTCC | 1.18
AGGCAGTTGT | 0.978
CTAGTATGGG | 0.948
CAAGGAGCAT | 1.08
AGAAAGGGAG | 0.97
CGCCATTAAG | 0.972
AGAACTAGCA | 0.993
TCGTTTACCT | 1.09
ATGTAGCCGG | 1.01
ATTTAAAGCT | 1.14
GCTGTCAGAA | 0.974
CGAAACTCGA | 0.971
CGGACCGAAA | 0.953
CAATTCGGTA | 1
TCACAAGAGA | 1.01
TGGTAGAGCC | 1
